Results on 31 variants are retold here after the GPR68 mutational scans of Howard et al. (2025).

Scores whose standard error is large were omitted. The source holds two more conditions with little spread; they are left out. Names with del lack the residues named; names with ins carry added residues between the positions named. For some assays here: The concentration of ogerin is not given here.

The labels stand for the following.
B1: GPR68, Q15743 (parent)
chain: MGNITADNSSMSCTIDHTIHQTLAPVVYVTVLVVGFPANCLSLYFGYLQIKARNELGVYLCNLTVADLFYICSLPFWLQYVLQHDNWSHGDLSCQVCGILLYENIYISVGFLCCISVDRYLAVAHPFRFHQFRTLKAAVGVSVVIWAKELLTSIYFLMHEEVIEDENQHRVCFEHYPIQAWQRAINYYRFLVGFLFPICLLLASYQGILRAVRRSHGTQKSRKDQIQRLVLSTVVIFLACFLPYHVLLLVRSVWEASCDFAKGVFNAYHFSLLLTSFNCVADPVLYCFVSETTHRDLARLRGACLAFLTCSRTGRAREAYPLGAPEASGKSGAQGEEPELLTKLHPAFQTPNSPGSGGFPTGRLA

Variants of B1 are the subject of data set [1]. Nature of the data set: cAMP reporter score (Enrich2 score, wild type = 0); higher = more signal; HEK293T, FACS bins.
The variants in data set [2] derive from B1. The experiment in a line: surface expression score (Enrich2 score, wild type = 0); higher = more signal; HEK293T, FACS bins.

L23W: the cAMP reporter score in data set [1] (pH 5.5) is 0.585; in data set [1] (pH 6), -0.218; in data set [1] (pH 6, modulator: ogerin) it was 0.862; in data set [1] (pH 6.5, modulator: ogerin) it was -0.159. Also, the surface expression score in data set [2] came out at 1.48.
Regarding L23H, the cAMP reporter score is -1.54 in data set [1] (pH 5.5); -1.66 in data set [1] (pH 6); -1.53 in data set [1] (pH 6, modulator: ogerin); -1.65 in data set [1] (pH 6.5, modulator: ogerin). Further, the surface expression score in data set [2] is -1.94.
As to L23T, the cAMP reporter score is -1.41 in data set [1] (pH 5.5); -1.55 in data set [1] (pH 6, modulator: ogerin); -2.25 in data set [1] (pH 6.5, modulator: ogerin). In addition, in data set [2], the surface expression score was -1.86.
Regarding L23P, the cAMP reporter score in data set [1] (pH 5.5) is -0.426; in data set [1] (pH 6), 0.655; in data set [1] (pH 6, modulator: ogerin) it was -0.674; in data set [1] (pH 6.5, modulator: ogerin), -0.612. Also, the surface expression score in data set [2] is -2.46.
Consider L23F, for which the cAMP reporter score in data set [1] (pH 5.5) was -0.62; in data set [1] (pH 6) it was 0.117; in data set [1] (pH 6, modulator: ogerin), -0.647; in data set [1] (pH 6.5, modulator: ogerin), -0.216. In data set [2], the surface expression score is -0.679.
For A24C, in that order: -0.585, -0.757, -1.19, -0.386 and -1.82.
For the variant A24N, the cAMP reporter score in data set [1] (pH 5.5) was -0.646; in data set [1] (pH 6), 0.966; in data set [1] (pH 6, modulator: ogerin), -1.02; in data set [1] (pH 6.5, modulator: ogerin) it was 0.548. For the same variant, in data set [2], the surface expression score is -1.38.
For A24P, in that order: -1.7, -1.59, -1.55, -1.5 and -2.02.
For A24K, in that order: -0.922, -0.311, -0.755, -0.695 and -1.76.
Regarding A24H, the cAMP reporter score is -0.485 in data set [1] (pH 5.5); -0.239 in data set [1] (pH 6, modulator: ogerin); 0.046 in data set [1] (pH 6.5, modulator: ogerin). Besides, the surface expression score in data set [2] was -0.616.
On to A24I, for which the cAMP reporter score in data set [1] (pH 5.5) was -1.07; in data set [1] (pH 6) it was -0.614; in data set [1] (pH 6, modulator: ogerin) it was -1.37; in data set [1] (pH 6.5, modulator: ogerin), -0.744. The surface expression score in data set [2] stood at 1.35.
Consider A24V, for which the cAMP reporter score in data set [1] (pH 5.5) is -1.72; in data set [1] (pH 6) it was -1.96; in data set [1] (pH 6, modulator: ogerin) it was -1.5; in data set [1] (pH 6.5, modulator: ogerin) it was -1.63. Moreover, the surface expression score in data set [2] was -0.656.
For A24Y, in that order: -0.932, -0.857, -1.33, -0.915 and -0.267.
For A24D, in that order: -0.765, -0.067, -1.67, -0.98 and -2.02.
In the case of A24S, the cAMP reporter score was determined as 0.94 in data set [1] (pH 5.5); 1.11 in data set [1] (pH 6); 1.15 in data set [1] (pH 6, modulator: ogerin); 1.67 in data set [1] (pH 6.5, modulator: ogerin). For the same variant, the surface expression score in data set [2] was -0.37.
As to A24Q, the cAMP reporter score in data set [1] (pH 5.5) is -1.52; in data set [1] (pH 6), -1.28; in data set [1] (pH 6, modulator: ogerin) it was -1.34; in data set [1] (pH 6.5, modulator: ogerin), -1.96. For the same variant, the surface expression score in data set [2] was -0.353.
On to A24M, for which the cAMP reporter score in data set [1] (pH 5.5) is -0.857; in data set [1] (pH 6), -0.564; in data set [1] (pH 6, modulator: ogerin) it was -1.21; in data set [1] (pH 6.5, modulator: ogerin) it was -0.615. For the same variant, in data set [2], the surface expression score stood at 0.354.
As to A24E, in data set [1] (pH 5.5), the cAMP reporter score was -2.28.
For A24T, the cAMP reporter score in data set [1] (pH 5.5) was -0.723; in data set [1] (pH 6), -1.19; in data set [1] (pH 6, modulator: ogerin), -0.703; in data set [1] (pH 6.5, modulator: ogerin), -0.634. For the same variant, in data set [2], the surface expression score is -0.531.
For A24F, in that order: 0.854, 2.2, 0.443, 2.64 and 0.236.
For A24G, in that order: 0.218, -0.617, -0.915, -2.06 and 0.078.
For A24L, in that order: -1.93, -1.49, -1.23, -0.749 and 1.06.
Take A24W: the cAMP reporter score was -0.593 in data set [1] (pH 5.5); -0.39 in data set [1] (pH 6); -1.21 in data set [1] (pH 6, modulator: ogerin); -1.19 in data set [1] (pH 6.5, modulator: ogerin). Moreover, the surface expression score in data set [2] was -0.176.
For S12Y, in that order: 0.584, 1.96, 1.11, 1.65 and 0.755.
For S12V, in that order: 1.42, 0.554, 1.7, 1.64 and 1.29.
For S12W, in that order: 1.9, 2.63, 2.15, 4.37 and 2.36.
For I15C, the cAMP reporter score was -0.401 in data set [1] (pH 5.5); 0.103 in data set [1] (pH 6); -0.525 in data set [1] (pH 6, modulator: ogerin); -0.212 in data set [1] (pH 6.5, modulator: ogerin). For the same variant, the surface expression score in data set [2] was -1.1.
On to I15A, for which the cAMP reporter score in data set [1] (pH 5.5) was 0.932; in data set [1] (pH 6), -0.71; in data set [1] (pH 6, modulator: ogerin), 0.492; in data set [1] (pH 6.5, modulator: ogerin), -0.251. Moreover, in data set [2], the surface expression score stood at 0.342.
For I15Y, in that order: -0.592, -0.553, -0.816, -0.243 and 0.382.
For I15M, in that order: -0.308, -0.722, -0.348, -1.26 and -0.053.
On to I15Q, for which the cAMP reporter score in data set [1] (pH 5.5) was -0.376; in data set [1] (pH 6), -0.457; in data set [1] (pH 6, modulator: ogerin) it was -0.479; in data set [1] (pH 6.5, modulator: ogerin), -0.879. In addition, the surface expression score in data set [2] is -0.581.
